Among all 300,000 compounds or so, about 1,200 (0.4%) were called active. The inconclusive results got no clear call from the source; some entries with a clear call stand among them for comparison. Calls come from the whole dose curve; as a rule, active = well fitted inhibition curve with a large enough effect; inconclusive = small, poorly fitted or top-dose-only effect, or another doubt; inactive = no such curve, though single readings can be large or run the other way. Potencies of inconclusive entries are doubtful fits and often do not repeat.
Molecular target: Lysosomal alpha-glucosidase (Homo sapiens) (UniProt P10253)
Assay: qHTS Assay for Inhibitors and Activators of Human alpha-Glucosidase Cleavage of Glycogen;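 for activity change, negative = inhibition: 0% = full enzyme reaction and -100% = no-enzyme basal signal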
Details: recombinant GAA, glycogen substrate, Amplex Red glucose oxidase fluorescence; activity change, negative = inhibition: at 76.4 µM (top of the series) unless noted
Procedure, shortened: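 qHTS, 1536-well; enzyme 4 nM final; cpd up to 77 uM; substrate bovine liver glycogen 30 ug; 50 mM citrate/phosphate pH 5.0, 0.01% Tween-20; 37 C, 40 min; Amplex Red detection 45 min RT; Hill fit → AC50.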
Potency is the fitted concentration of half-maximal effect.

| SMILES | activity change, negative = inhibition | Potency |
| --- | --- | --- |
| CCN(C(=O)C(=O)Nc1ccc2nc3n(c(=O)c2c1)CCCCC3)c1ccc(F)cc1 | inactive: -1.95% [at 76.3 µM] |  |
| COc1cc(C(=O)CC2(O)C(=O)N(Cc3ccccc3Cl)c3ccccc32)cc(OC)c1OC (stereo not given) | inactive: -11.2% [at 76.3 µM] |  |
| C/C(=N\NC(=O)Cc1c(C)[nH][nH]c1=O)c1ccc(Cl)c(Cl)c1 |  | inconclusive: 35.5 µM [inhibitor, partial curve] |
| Cc1ccc(NC(=O)Nc2ccccc2)c(Br)c1 | inactive: 11.9% |  |
| COC(=O)C1CSc2[nH]c(=O)sc2C1c1ccc(O)c(OC)c1 (stereo not given) |  | active: 15.8 µM |
| CCOc1cccc(C2Nc3ccccc3-c3cc(C)nn32)c1O (stereo not given) |  | inconclusive: 20 µM [inhibitor, partial curve] |
| Clc1ccc(CNc2ccccc2NCc2ccc(Cl)nc2)cn1 |  | inconclusive: 22.2 µM [inhibitor, partial curve, poor fit] |
| COc1ccccc1-c1nc(C#N)c(NCCCn2ccnc2)o1 |  | inconclusive: 9.92 µM [inhibitor, partial curve] |
| Fc1ccc(Nc2nc3ccccc3c3nncn23)c(Cl)c1 | inactive: 13.3% [at 76.3 µM] |  |
| COc1cc(C2NC(=O)NC(C)=C2C(=O)OCC2CCCCC2)ccc1O (stereo not given) |  | inconclusive: 39.8 µM [inhibitor, partial curve] |
| CC1(C)CC(=O)C2=C(C1)NC1=C(C(=O)c3ccccc31)C2c1ccccc1 (stereo not given) | inactive: -20.9% |  |
| COc1cc(C(CCN2CCOCC2)c2c(OC)cc(OC)c3c2OC(=O)CC3c2ccc(N(C)C)cc2)cc(OC)c1OC (stereo not given) | inactive: -20.6% |  |
| CCOc1ccc(NCc2cc3cc(OC)ccc3[nH]c2=O)cc1 |  | inconclusive: 10 µM [inhibitor, partial curve] |
| Brc1ccc(C=Nc2ccc(Nc3ccccc3)cc2)s1 |  | active: 8.91 µM |
| COc1cc(C(c2c(C)[nH][nH]c2=O)c2c(C)[nH][nH]c2=O)ccc1OS(=O)(=O)c1ccc(C)cc1 |  | inconclusive: 25.1 µM [inhibitor, partial curve] |
| CCC(CC)C(=O)c1c[nH]c(C(=O)NN)c1 |  | inconclusive: 31.6 µM [inhibitor, partial curve] |
| CCOC(=O)c1c(OCC)[nH]c2ccc(O)cc12 |  | active: 6.31 µM |
| COc1ccc2[nH]c(C)c(CCNC(=S)Nc3cccc(C)c3)c2c1 |  | inconclusive: 28.2 µM [inhibitor, single point] |
| CCOC(=O)c1ccc(Oc2cn[nH]c2-c2ccc(O)cc2O)cc1 |  | inconclusive: 25.1 µM [inhibitor, partial curve] |
| CC1CCc2c(nc3ncnn3c2N2CCN(c3ccccc3F)CC2)C1 (stereo not given) | inactive: 0.52% |  |
| ON1C2CCCCC2N(O)C1c1c(F)c(F)c(F)c(F)c1F (stereo not given) |  | inconclusive: 12.6 µM [inhibitor, partial curve] |
| COc1ccc(N2CCN(CC(=O)c3ccc(O)cc3O)CC2)cc1 |  | inconclusive: 39.8 µM [activator, single point] |
| CCc1cc(C(=O)NNC(=S)Nc2ccccc2C)cs1 |  | inconclusive: 28.2 µM [inhibitor, partial curve] |

| SMILES | activity change, negative = inhibition | Potency |
| --- | --- | --- |
| CCOC(=O)C1=C2SCC(=O)N2C(N)=C(C#N)C1 |  | inconclusive: 19.8 µM [inhibitor, partial curve] |
| Cc1nc(Sc2nnnn2C)c2c3c(sc2n1)CCC3 | inactive: -11.3% |  |
| NNCCc1ccccc1 |  | inconclusive: 35.5 µM [inhibitor, single point] |
| CCCCc1nc2n[nH]c(N)c2c2c1CCC2 |  | inconclusive: 11.2 µM [inhibitor, partial curve] |
| CC(C)n1c(NCc2ccc(N(C)C)cc2)nc2ccccc21 |  | inconclusive: 14 µM [inhibitor, partial curve] |
| CCOc1cc(-c2cc(C(=O)O)c3c(-c4ccccc4)[nH]nc3n2)ccc1O |  | inconclusive: 15.8 µM [inhibitor, partial curve] |
| Oc1ccc(NC(=S)Nc2ccc(O)cc2)cc1 |  | active: 3.14 µM |
| CCOc1cc(C(=O)N2CC(=O)Nc3ccc(F)cc3C2c2ccccc2)cc(OCC)c1OCC (stereo not given) | inactive: 11.7% [at 76.3 µM] |  |
| O=C1NCCCC2c3cc(O)c4ccccc4c3OC12N1CCCCC1 (stereo not given) |  | active: 25.1 µM |
| COc1ccc(Nc2oc(COc3cccc(C)c3)nc2C#N)cc1 |  | inconclusive: 14 µM [inhibitor, partial curve] |
| COc1ccccc1CNC(=O)c1ccc(CS(=O)(=O)c2ccccc2OC)o1 | inactive: 3.93% |  |
| CN(Cc1ccccc1)C(=O)c1c[nH]c2ccc(S(=O)(=O)Nc3ccccc3F)cc2c1=O |  | inconclusive: 11.2 µM [inhibitor, partial curve] |
| CC(=O)Nc1ccc(NC(=O)CSc2ccc3nnc(CCNC(=O)c4ccccc4)n3n2)cc1 |  | inconclusive: 28.2 µM [inhibitor, partial curve] |
| CCOc1cc(/C=N/NC(=O)C(C)Sc2ccccn2)ccc1O (stereo not given) |  | inconclusive: 39.8 µM [inhibitor, single point] |
| Cc1ccc(NC(=S)N/N=C/c2ccc(OCCC(C)C)cc2)c(C)c1 |  | inconclusive: 35.5 µM [inhibitor, partial curve] |
| Cc1ccc(SCc2cc(=O)n(C)[nH]2)cc1 |  | inconclusive: 35.5 µM [inhibitor, partial curve] |
| Cc1ccc(O)c(NC(=O)c2cc([N+](=O)[O-])ccc2Cl)c1 |  | inconclusive: 28.2 µM [inhibitor, partial curve] |
| COc1cc(C2C3=C(CCCC3=O)Nc3[nH]n(-c4ccccc4)c(=O)c32)cc(OC)c1OC (stereo not given) |  | inconclusive: 9.92 µM [inhibitor, partial curve, poor fit] |
| Nc1c(Cl)cc(-c2[nH]c3cc(C(=O)NCCO)ccc3c(=O)c2O)cc1Cl |  | inconclusive: 15.8 µM [inhibitor, partial curve] |
| N#Cc1ccc(NC(=O)CNc2cc(S(=O)(=O)N3CCOCC3)ccc2NCC2CCCO2)cc1 (stereo not given) |  | inconclusive: 35.5 µM [inhibitor, partial curve] |
| CCNc1ccc(S(=O)(=O)N(C)C)cc1NCC(=O)Nc1c(F)cccc1F |  | inconclusive: 15.8 µM [inhibitor, partial curve] |
| COc1ccccc1-c1ncnn1-c1sc2c(c1C#N)CCCCC2 |  | inconclusive: 35.5 µM [inhibitor, single point] |

— PubChem BioAssay AID2100 (National Center for Advancing Translational Sciences (NCATS), 2009)
